Measured values from the supplement of paper PMC8728848.
The list shows a part of the results.

Legend:
Experiment in all cases: glycan array binding signal (z-score within array); higher = stronger binding
Settings in all cases: glycan notation: IUPAC condensed, linker removed
[1] = biological target: Gal(b1-2)Gal
Summary of the method: (§1)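 Glycan array data were curated from 3228 arrays in the Consortium for Functional Glycomics database and kept only where the protein sequence was available. Glycan names were converted to IUPAC-condensed notation, and columns mapping to the same glycan were averaged. The binding signal is a within-array Z-score, averaged across arrays of the same protein sequence at different concentrations or buffers and across linkers. Negative Z-scores can be read as non-binding.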

[2] = biological target: Gal(b1-3)Gal
Summary of the method: as §1

[3] = biological target: Gal(b1-3)Gal(b1-4)GlcNAc
Summary of the method: as §1

[4] = biological target: Gal(b1-3)GalNAc
Summary of the method: as §1

[5] = biological target: Gal(b1-3)GalNAc(a1-3)[Fuc(a1-2)]Gal(b1-4)Glc
Summary of the method: as §1

[6] = biological target: Gal(b1-3)GalNAc(a1-3)[Fuc(a1-2)]Gal(b1-4)GlcNAc
Summary of the method: as §1

[7] = biological target: Gal(b1-3)GalNAc(b1-3)Gal
Summary of the method: as §1

[8] = biological target: Gal(b1-3)GalNAc(b1-3)Gal(a1-4)Gal(b1-4)Glc
Summary of the method: as §1

[9] = biological target: Gal(b1-3)GalNAc(b1-4)Gal(b1-4)Glc
Summary of the method: as §1

[10] = biological target: Gal(b1-3)GalNAc(b1-4)[Neu5Ac(a2-3)]Gal(b1-4)Glc
Summary of the method: as §1

[11] = biological target: Gal(b1-3)GlcNAc
Summary of the method: as §1

[12] = biological target: Gal(b1-3)GlcNAc(a1-3)Gal(b1-4)GlcNAc
Summary of the method: as §1

[13] = biological target: Gal(b1-3)GlcNAc(a1-6)Gal(b1-4)GlcNAc
Summary of the method: as §1

[14] = biological target: Gal(b1-3)GlcNAc(b1-2)Man
Summary of the method: as §1

[15] = biological target: Gal(b1-3)GlcNAc(b1-2)Man(a1-3)[Gal(b1-3)GlcNAc(b1-2)Man(a1-6)]Man(b1-4)GlcNAc(b1-4)GlcNAc
Summary of the method: as §1

[16] = biological target: Gal(b1-3)GlcNAc(b1-2)Man(a1-3)[Gal(b1-3)GlcNAc(b1-2)Man(a1-6)]Man(b1-4)GlcNAc(b1-4)[Fuc(a1-6)]GlcNAc
Summary of the method: as §1

[17] = biological target: Gal(b1-3)GlcNAc(b1-2)Man(a1-3)[GlcNAc(b1-4)][Gal(b1-3)GlcNAc(b1-2)Man(a1-6)]Man(b1-4)GlcNAc(b1-4)GlcNAc
Summary of the method: as §1

[18] = biological target: Gal(b1-3)GlcNAc(b1-2)[Gal(b1-3)GlcNAc(b1-6)]Man(a1-6)[Gal(b1-3)GlcNAc(b1-2)Man(a1-3)]Man(b1-4)GlcNAc(b1-4)GlcNAc
Summary of the method: as §1

[19] = biological target: Gal(b1-3)GlcNAc(b1-3)Gal(b1-3)GlcNAc
Summary of the method: as §1

[20] = biological target: Gal(b1-3)GlcNAc(b1-3)Gal(b1-4)Glc
Summary of the method: as §1

[21] = biological target: Gal(b1-3)GlcNAc(b1-3)Gal(b1-4)GlcNAc
Summary of the method: as §1

[22] = biological target: Gal(b1-3)GlcNAc(b1-3)Gal(b1-4)GlcNAc(b1-2)Man(a1-3)[Gal(b1-3)GlcNAc(b1-3)Gal(b1-4)GlcNAc(b1-2)Man(a1-6)]Man(b1-4)GlcNAc(b1-4)GlcNAc
Summary of the method: as §1

[23] = biological target: Gal(b1-3)GlcNAc(b1-3)Gal(b1-4)GlcNAc(b1-2)[Gal(b1-3)GlcNAc(b1-3)Gal(b1-4)GlcNAc(b1-6)]Man(a1-6)[Gal(b1-3)GlcNAc(b1-3)Gal(b1-4)GlcNAc(b1-2)Man(a1-3)]Man(b1-4)GlcNAc(b1-4)[Fuc(a1-6)]GlcNAc
Summary of the method: as §1

[24] = biological target: Gal(b1-3)GlcNAc(b1-3)Gal(b1-4)GlcNAc(b1-3)Gal(b1-4)GlcNAc(b1-2)[Gal(b1-3)GlcNAc(b1-3)Gal(b1-4)GlcNAc(b1-3)Gal(b1-4)GlcNAc(b1-6)]Man(a1-6)[Gal(b1-3)GlcNAc(b1-3)Gal(b1-4)GlcNAc(b1-3)Gal(b1-4)GlcNAc(b1-2)Man(a1-3)]Man(b1-4)GlcNAc(b1-4)[Fuc(a1-6)]GlcNAc
Summary of the method: as §1

[25] = biological target: Gal(b1-3)GlcNAc(b1-3)Gal(b1-4)GlcNAc(b1-6)[Gal(b1-3)GlcNAc(b1-3)]Gal(b1-4)Glc
Summary of the method: as §1

[26] = biological target: Gal(b1-3)GlcNAc(b1-3)Gal(b1-4)[Fuc(a1-3)]GlcNAc
Summary of the method: as §1

[27] = biological target: Gal(b1-3)GlcNAc(b1-3)Gal(b1-4)[Fuc(a1-3)]GlcNAc(b1-6)[Gal(b1-3)GlcNAc(b1-3)]Gal(b1-4)Glc
Summary of the method: as §1

[28] = biological target: Gal(b1-3)GlcNAc(b1-3)GalNAc
Summary of the method: as §1

[29] = biological target: Gal(b1-3)GlcNAc(b1-6)Gal(b1-4)GlcNAc
Summary of the method: as §1

[30] = biological target: Gal(b1-3)GlcNAc(b1-6)GalNAc
Summary of the method: as §1

[31] = biological target: Gal(b1-3)GlcNAc(b1-6)[Gal(b1-3)]GalNAc
Summary of the method: as §1

[32] = biological target: Gal(b1-3)GlcNAc6S
Summary of the method: as §1

[33] = biological target: Gal(b1-3)[Fuc(a1-4)]GlcNAc
Summary of the method: as §1

[34] = biological target: Gal(b1-3)[Fuc(a1-4)]GlcNAc(b1-2)Man
Summary of the method: as §1

[35] = biological target: Gal(b1-3)[Fuc(a1-4)]GlcNAc(b1-2)Man(a1-3)[Gal(b1-3)[Fuc(a1-4)]GlcNAc(b1-2)Man(a1-6)]Man(b1-4)GlcNAc(b1-4)[Fuc(a1-6)]GlcNAc
Summary of the method: as §1

[36] = biological target: Gal(b1-3)[Fuc(a1-4)]GlcNAc(b1-3)Gal(b1-3)[Fuc(a1-4)]GlcNAc
Summary of the method: as §1

[37] = biological target: Gal(b1-3)[Fuc(a1-4)]GlcNAc(b1-3)Gal(b1-4)[Fuc(a1-3)]GlcNAc
Summary of the method: as §1

[38] = biological target: Gal(b1-3)[Fuc(a1-4)]GlcNAc(b1-6)GalNAc
Summary of the method: as §1

[39] = biological target: Gal(b1-3)[GlcNAc(b1-6)]GalNAc
Summary of the method: as §1

[40] = biological target: Gal(b1-3)[Neu5Ac(a2-6)]GalNAc
Summary of the method: as §1

[41] = biological target: Gal(b1-3)[Neu5Ac(a2-6)]GlcNAc(b1-4)Gal(b1-4)Glc
Summary of the method: as §1

[42] = biological target: Gal(b1-3)[Neu5Ac(b2-6)]GalNAc
Summary of the method: as §1

[43] = biological target: Gal(b1-4)Gal
Summary of the method: as §1

[44] = biological target: Gal(b1-4)GalNAc(a1-3)[Fuc(a1-2)]Gal(b1-4)GlcNAc
Summary of the method: as §1

[45] = biological target: Gal(b1-4)GalNAc(b1-3)[Fuc(a1-2)]Gal(b1-4)GlcNAc
Summary of the method: as §1

B1: Epa13 (Candida glabrata) (protein)
chain: MGSSHHHHHHSSGLVPRGSHMASDSSENGYAHGCSPSIRAKLKPGLSMEIYSYALRPTDDHCWDSAYLDPMFPRTGYLTHKLLGKAEGIIGPLNFLAKNPACIPAVSTLPLAFHFPKPFTITNFTMLLYGYLSPKKTGKYTFKLLADDLLLMNFGADNAFDCCSHDATKDNIGEYVAYSVWPGVNKNVTVYLESGIYYPLRLFFNNRDAIAQLDFAYYFNDSPIRQTDFSGMFFSIPDSVKCPANI
[1]
  glycan array binding signal (z-score): 4.04
[2]
  glycan array binding signal (z-score): -0.396
[3]
  glycan array binding signal (z-score): -0.215
[4]
  glycan array binding signal (z-score): -0.281
[5]
  glycan array binding signal (z-score): -0.084
[6]
  glycan array binding signal (z-score): -0.314
[7]
  glycan array binding signal (z-score): -0.14
[8]
  glycan array binding signal (z-score): -0.172
[9]
  glycan array binding signal (z-score): -0.276
[10]
  glycan array binding signal (z-score): -0.173
[11]
  glycan array binding signal (z-score): -0.201
[12]
  glycan array binding signal (z-score): -0.046
[13]
  glycan array binding signal (z-score): -0.253
[14]
  glycan array binding signal (z-score): -0.027
[15]
  glycan array binding signal (z-score): -0.226
[16]
  glycan array binding signal (z-score): -0.371
[17]
  glycan array binding signal (z-score): -0.285
[18]
  glycan array binding signal (z-score): -0.019
[19]
  glycan array binding signal (z-score): -0.037
[20]
  glycan array binding signal (z-score): -0.309
[21]
  glycan array binding signal (z-score): -0.418
[22]
  glycan array binding signal (z-score): -0.321
[23]
  glycan array binding signal (z-score): 0.141
[24]
  glycan array binding signal (z-score): 0.175
[25]
  glycan array binding signal (z-score): 0.083
[26]
  glycan array binding signal (z-score): -0.011
[27]
  glycan array binding signal (z-score): -0.379
[28]
  glycan array binding signal (z-score): -0.128
[29]
  glycan array binding signal (z-score): -0.113
[30]
  glycan array binding signal (z-score): -0.243
[31]
  glycan array binding signal (z-score): -0.014
[32]
  glycan array binding signal (z-score): -0.024
[33]
  glycan array binding signal (z-score): -0.314
[34]
  glycan array binding signal (z-score): 0.332
[35]
  glycan array binding signal (z-score): -0.37
[36]
  glycan array binding signal (z-score): -0.321
[37]
  glycan array binding signal (z-score): -0.541
[38]
  glycan array binding signal (z-score): -0.222
[39]
  glycan array binding signal (z-score): -0.39
[40]
  glycan array binding signal (z-score): -0.251
[41]
  glycan array binding signal (z-score): -0.271
[42]
  glycan array binding signal (z-score): -0.408
[43]
  glycan array binding signal (z-score): -0.344
[44]
  glycan array binding signal (z-score): -0.434
[45]
  glycan array binding signal (z-score): -0.254
